# Reference: paper PMC4336329 (PLoS ONE, 2015)
# Out of some 310,000 compounds screened, about 2,200 (0.71%) showed an effect of 50% or more. The effect is printed as a negative number. The list shows a part of the results.
# Target: human ether-à-go-go-related gene (hERG) potassium channel (human, UniProt Q12809)
# Assay: primary screen, population patch clamp on CHO cells stably expressing hERG
# human ether-à-go-go-related gene (hERG) potassium channel, sequence (Q12809 whole entry, looked up): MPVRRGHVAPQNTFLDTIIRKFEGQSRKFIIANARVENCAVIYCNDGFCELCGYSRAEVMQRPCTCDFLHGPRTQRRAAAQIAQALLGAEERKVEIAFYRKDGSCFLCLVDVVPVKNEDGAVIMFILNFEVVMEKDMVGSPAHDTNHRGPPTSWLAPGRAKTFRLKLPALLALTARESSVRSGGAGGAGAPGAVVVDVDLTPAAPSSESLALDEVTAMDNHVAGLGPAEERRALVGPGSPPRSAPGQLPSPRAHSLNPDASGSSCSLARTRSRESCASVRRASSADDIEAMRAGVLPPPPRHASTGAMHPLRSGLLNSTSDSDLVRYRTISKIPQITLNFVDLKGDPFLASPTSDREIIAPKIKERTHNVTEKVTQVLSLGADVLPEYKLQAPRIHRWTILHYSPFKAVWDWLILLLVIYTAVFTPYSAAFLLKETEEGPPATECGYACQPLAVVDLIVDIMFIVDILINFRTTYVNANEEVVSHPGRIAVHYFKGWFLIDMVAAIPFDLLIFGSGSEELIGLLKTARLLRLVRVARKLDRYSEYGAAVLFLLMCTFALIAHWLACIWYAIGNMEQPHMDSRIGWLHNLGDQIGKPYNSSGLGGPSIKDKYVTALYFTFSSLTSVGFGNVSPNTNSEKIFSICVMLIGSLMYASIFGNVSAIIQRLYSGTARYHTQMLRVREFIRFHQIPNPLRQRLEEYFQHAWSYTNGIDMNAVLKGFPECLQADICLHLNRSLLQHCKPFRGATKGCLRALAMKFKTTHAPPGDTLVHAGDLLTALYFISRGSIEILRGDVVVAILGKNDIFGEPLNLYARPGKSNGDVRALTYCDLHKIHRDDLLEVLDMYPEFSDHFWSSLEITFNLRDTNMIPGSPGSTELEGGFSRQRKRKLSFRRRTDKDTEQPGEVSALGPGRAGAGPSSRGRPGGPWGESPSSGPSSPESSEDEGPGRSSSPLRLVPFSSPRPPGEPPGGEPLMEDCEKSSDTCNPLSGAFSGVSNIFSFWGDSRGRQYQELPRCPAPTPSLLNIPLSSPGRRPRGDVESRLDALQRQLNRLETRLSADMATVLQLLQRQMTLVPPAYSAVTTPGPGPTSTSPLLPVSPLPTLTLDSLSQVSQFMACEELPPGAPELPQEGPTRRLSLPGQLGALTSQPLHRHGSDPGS
row,SMILES,"hERG current change (%, negative = inhibition) at 1uM [%]"
1,COc1ccc(C(=O)NNC(=O)CSc2nnc(COc3ccc4ccccc4c3)n2C)cc1,9.41
2,CCN(CC)S(=O)(=O)c1cccc(C(=O)Nc2ccc3c(c2)OCO3)c1,-0.521
3,CCCNc1ccc(S(=O)(=O)N(C(C)C)C(C)C)cn1,1.3
4,O=C(NCc1ccccc1)c1cccc(F)c1F,16.3
5,COCCCn1c(=O)/c(=C\c2ccccc2OC(F)F)s/c1=C(/C#N)C(=O)NCCOC,4.74
6,COCCCn1c(SCC(=O)NC2CCCCC2)nnc1-c1ccncc1,19.2
7,Cc1c(C(=O)O)cccc1N1C(=O)Nc2ccccc2N1O,17.8
8,COc1ccc(-c2nc3n(c2C)Cc2ccccc2-3)cc1,2.78
9,Cc1nonc1CN(C)C(=O)CC1C(=O)NCCN1Cc1cccc(C(F)(F)F)c1 (stereo not shown),7.17
10,O=C(O)/C(=C1\OC(=O)c2ccccc21)c1ccccc1,9.39
11,O=C(CNc1ccc2ccccc2c1)NNC1=NCCC1,10.9
12,CCOc1ccc(C2SCC(=O)Nc3c2c(C)nn3C2CCOC(C)(C)C2)cc1 (stereo not shown),12.3
13,CC[N+]1=CN(c2ccccc2)C(C)=CC1(C)C.[I-],5.36
14,O=C(Nc1ccc(N2C(=O)C3C4C=CC(C4)C3C2=O)cc1)Nc1nncs1 (stereo not shown),-3.42
15,COc1cc(C(=O)NCc2ccc(F)cc2)cc(Cl)c1OC,12.9
16,O=C(CN1C(=O)NC2(CCc3ccccc3C2)C1=O)Nc1ccc(Cl)cc1F (stereo not shown),8.99
17,O=C(CO/N=C/c1ccccc1)Nc1c(F)c(F)c(F)c(F)c1F,7.33
18,COc1ccc(NC(=O)c2cccn(CC=C(C)C)c2=O)cc1,11.5
19,CCCCNC(=S)NNC(=O)c1csc(C)c1CC,15.3
20,CCOC(=O)N=S(N)(=O)c1ccc(Cl)cc1 (stereo not shown),6.9
21,O=C(N/N=C/c1ccc(Br)cc1)c1ccc(Br)o1,20.1
22,Cn1c(N)c(C(=O)COC(=O)c2cncc(Br)c2)c(=O)n(C)c1=O,-2.67

row,SMILES,"hERG current change (%, negative = inhibition) at 1uM [%]"
1,CCOc1ccc(S(=O)(=O)N(CC(=O)NCc2cccnc2)c2ccc(F)cc2)cc1,-67.2
2,CCOC(=O)C1=C(C)NC2=C(C(=O)OC2)C1c1ccccc1 (stereo not shown),10.2
3,COc1cccc(NC(=S)N2CCN(C(c3ccccc3)c3ccccc3)CC2)c1,8.06
4,C=CCOc1c(Br)cc(CNc2ccc(NC(=O)CCC)cc2)cc1OCC,6.23
5,COc1ccc(CN2CCN(C(=O)c3cc(OC)c(OC)c(OC)c3)CC2)cc1OC,6.64
6,Cc1cc(=O)oc(C)c1C(=O)OCC(=O)c1ccc(Br)cc1,9.88
7,Br.CCN(CC)S(=O)(=O)c1cccc(-c2nc3n(n2)Cc2ccccc2-3)c1,-1.28
8,CC(=O)c1cccc(NC(=O)CN2C(=O)c3cccnc3Oc3ccc(Cl)cc32)c1,7.05
9,Cc1cccn2c(=O)c(C=O)c(N3CCN(c4ccc(F)cc4)CC3)nc12,-2.07
10,Cc1ccc(C(NC(=O)C2CCCCC2)c2c(O)ccc3ccccc23)cc1 (stereo not shown),1.33
11,O=C1[C@H]2[C@H](C=CC[C@H]2C(=O)N2CCN(c3ccccc3)CC2)CCN1Cc1ccc(Cl)c(Cl)c1,9.67
12,CC(C)(C)C(=O)Cn1ncc(NC2CC2)c(Br)c1=O,10.2
13,COc1ccc2[nH]c(=O)c(CN(c3ccccc3)S(=O)(=O)c3ccccc3)cc2c1,12.8
14,CCCNc1oc(-c2cccc3ccccc23)nc1C#N,6.32
15,O=C1CC(NC(=O)c2ccc(Cl)cc2)C(=O)N1 (stereo not shown),11.1
16,CS(=O)(=O)N(Cc1ccccc1)c1ccc(C(=O)NCCSCc2ccco2)cc1,6.91
17,COC(=O)c1cc(C#N)c(Oc2ccc(OC)cc2)nc1C,-6.2
18,CN(CC(=O)Nc1ccc(F)cc1)C(=O)COC(=O)CN1C(=O)NC2(CCCC2)C1=O,12.4
19,CC(=O)N1c2ccc(S(=O)(=O)NCc3ccccc3Cl)cc2CC1C (stereo not shown),7.3
20,O=C(CSc1nnc(-c2cccnc2)n1-c1ccccc1)Nc1ccccc1,-44.9
21,Cc1cccc(/C=C2/SC(=O)N(Cc3ccccc3)C2=O)n1,3.79
22,O=C(O)CSc1nnc(Cc2ccccc2)n1Cc1ccccc1,7.14

row,SMILES,"hERG current change (%, negative = inhibition) at 1uM [%]"
1,O=C(Nc1nnc(SCC(=O)N2CCOCC2)s1)c1ccccc1Cl,9.94
2,Cc1cc(NC(=O)CSc2ccc(Cl)cc2)no1,-3.41
3,CCN1CCN(CCCNc2ncnc3nc[nH]c23)CC1,0.117
4,COC(=O)Nc1nc(-c2cc(Cl)ccc2Cl)cs1,10.5
5,CCOC(=O)C1CCCN(C(=O)c2ccc3nc(-c4ccc(OC)c(OC)c4)c(-c4ccc(OC)c(OC)c4)nc3c2)C1 (stereo not shown),16.6
6,ONC(=Nc1ccccc1Cl)c1ccccc1Cl,14.4
7,COc1ccc(N(C(C)C(=O)N/N=C/c2cccnc2)S(C)(=O)=O)cc1 (stereo not shown),7.87
8,NC(=O)c1cc(S(=O)(=O)N2CCN(c3ccc([N+](=O)[O-])cc3)CC2)cs1,-59.3
9,O=C(Cn1nnc(-c2ccccc2NC(=O)c2ccccc2F)n1)NCc1ccco1,14.6
10,CC[C@H](C)[C@@H]1NC(=O)c2cc([N+](=O)[O-])cc(F)c2NCCCC[C@@H](C(N)=O)NC(=O)[C@H](CC(N)=O)NC1=O,7.43
11,O=C1C2CC=CCC2C(=O)N1Cc1nnc(-c2ccccc2Br)o1 (stereo not shown),6.47
12,N#CC1=C(N)Oc2n[nH]c(-c3cccnc3)c2C1c1cc(F)ccc1F (stereo not shown),8.92
13,CC(C)c1ccc(NC2CCCN(C(=O)CCc3cn[nH]c3)C2)cc1 (stereo not shown),19.7
14,Cc1cc(C)n2c(Nc3ccc4c(c3)OCCO4)c(-c3ccccc3)nc2n1,27.8
15,O=C(COc1ccc(Cl)cc1)N(Cc1ccccc1)c1nc(-c2ccccc2)cs1,1.64
16,COc1cccc(Oc2cc(NN3CCCCC3)c([N+](=O)[O-])cc2[N+](=O)[O-])c1OC,9.98
17,COc1cc(NC(=S)NCCCO)c(OC)cc1Cl,15.2
18,Cl.O=C(Nc1ccccc1)N1CCNCC1,13.9
19,COc1ccc(CCNCC(=O)Nc2ccc(C(=O)N3CCCCC3)cc2)cc1.O=C(O)C(=O)O,10.2
20,Cc1c(Cc2ccccc2)c(=O)oc2c(C)c(OCC(=O)Nc3ccc(C#N)cc3)ccc12,0.215
21,COc1cccc(NC(=S)N2CCN(c3ccccn3)CC2)c1,9.77
22,Cc1nc(-c2ccc(NC(=O)c3cccs3)cc2)cs1,4.47

row,SMILES,"hERG current change (%, negative = inhibition) at 1uM [%]"
1,O=C(Cn1ccc2cc(S(=O)(=O)N3CCCCC3)ccc21)NCc1ccccc1F,11.9
2,CCn1nc(NS(=O)(=O)c2ccccc2)c2cc3cc(C)ccc3nc21,8.55
3,O=C(COC(=O)c1ccccc1F)Nc1cccnc1Cl,7.08
4,O=C(CN1CCCC1)Nc1ccccc1C(=O)c1ccccc1,10.5
5,COc1ccc(C(=O)Nc2ccc(Cl)cc2F)cc1S(=O)(=O)N1CCCC1,-13.2
6,CCN(CC)CC(=O)Nc1ccc(-c2nc3cc(NC(=O)CN(CC)CC)ccc3o2)cc1,-7.15
7,CCC(C)c1ccc(NC(=O)C2=CC=CN3CCS(=O)(=O)N=C23)cc1 (stereo not shown),-0.58
8,N#Cc1ccccc1Oc1ccccc1C=O,7.22
9,CCOC(=O)C1=C(C)N(C)C(=O)C1CC(=O)O (stereo not shown),13.8
10,Cc1ccc(NC(=O)CSc2nnc(NC(=O)C(C)C)s2)c(C)c1,11.7
11,COC(=O)C1=C(c2cccc(OCc3ccccc3)c2)C[C@@H]2CC[C@H]1N2C(=O)NCCOc1ccccc1Cl,7.9
12,Cc1noc(C)c1S(=O)(=O)N(C)Cc1ccccc1,22.6
13,Cc1ccc(/C=N\NC(=O)C2COc3cc4ccccc4cc3O2)o1 (stereo not shown),7.63
14,NC1=NC(c2cccc(O)c2)n2c(nc3ccccc32)N1 (stereo not shown),12.7
15,O=C(N/N=C/c1cc([N+](=O)[O-])cc(Br)c1O)C12CC3CCC(CC(C3)C1)C2,10.6
16,COc1ccccc1-c1nc(-c2ccncc2)no1,15.1
17,CO/N=C/c1ccc(OC)c(Oc2nc(OC)cc(OC)n2)c1,16.4
18,O=c1[nH]cnc2c1sc(=S)n2-c1ccccc1,1.57
19,Cc1cc(=O)c(C(=O)Nc2cccc(N3CCCC3=O)c2)nn1-c1ccccc1F,-3.5
20,CN(C(=S)NCCN1CCOCC1)C(c1ccccc1)c1ccccc1,11.2
21,O=C(Nc1ccccc1)OCCOc1ccc(Br)cc1,11.2
22,O=C1C2C3C=CC(C3)C2C(=O)N1CC1CCCO1 (stereo not shown),16.6
